This passage reports binding signal results from PMC10668032.

This is one part of the list. At the low end of the ranking the order means little.

The target of this assay is SIX1-Q177R homeodomain (UniProt Q15475). The assay is described as follows: universal protein binding microarray. To be noted: Universal all-10-mer PBM (8x60K, AMADID 030236), 300 nM GST-tagged protein, Alexa Fluor 488 anti-GST; buffer, salt, pH and temperature not stated; high values mean tight binding; most listed sequences are background and not binding sites; double strand, one strand shown.
Consider GCGCTCAA, for which the binding signal was -0.194 E-score.

Take AGATGACC: the binding signal is -0.156 E-score. In the case of AGAGACCG it was -0.0974 E-score.

Consider GCGGAAGA, for which the binding signal is -0.169 E-score.

ACCACGAT: the binding signal turned out to be 0.0455 E-score. The figure for AGTGTCAC is 0.45 E-score; for AACACACT it is 0.276 E-score; for GGATCTAC it is -0.00587 E-score. In the case of GTGCAAGA it was -0.0419 E-score. Turning to AATTGTAA, the binding signal is -0.148 E-score. In the case of GTCTAAAC it was 0.0568 E-score; in that of CCCGGCGC, 0.0102 E-score. The figure for ACTACAGT is 0.0348 E-score; for ACCACAAC it is -0.0159 E-score; for GACATTGA it is -0.245 E-score. On to CTCTATTA, for which the binding signal was -0.0792 E-score. The figure for AGTACCAT is 0.0467 E-score; for ATCTTATG it is -0.231 E-score. In the case of AGCCCACG it was -0.113 E-score. CTTGTGCA: the binding signal is -0.0895 E-score. The figure for AATGATCA is -0.288 E-score; for CTCCCTGC it is -0.0448 E-score. The figure for CTTCGCGC is -0.101 E-score; for CGTTGAAC it is 0.0187 E-score; for GAAACTAC it is -0.0761 E-score.

For the sequence ATACTCAT, the binding signal came out at 0.0568 E-score. For the sequence AAAGGGTT, the binding signal was -0.155 E-score. Take CGTAACGC: the binding signal was found to be 0.0201 E-score.

As to CGCACCCG, the binding signal was 0.245 E-score. In the case of GAGTTTGA it was -0.0457 E-score; in that of GTGAACAC, 0.412 E-score. In the case of CCGCAGTC it was -0.0915 E-score; in that of GGTTGGAA, -0.0119 E-score; in that of CGCGCATC, -0.208 E-score. For the sequence GGCCTACA, the binding signal was -0.0202 E-score. The figure for TGCGCCAA is -0.178 E-score. Consider CATATCCG, for which the binding signal was -0.0981 E-score.

As to CACTATGC, the binding signal amounted to 0.245 E-score. AGACGGCG: the binding signal is -0.192 E-score. In the case of CGGTTTTC it was -0.173 E-score; in that of ATAGAGTC, 0.202 E-score; in that of CAAAACCC, 0.0705 E-score. As to TGATTTAA, the binding signal is -0.151 E-score.

With ATCGCACG, the binding signal was -0.00112 E-score.

As for AAGCTTGA, the binding signal was -0.156 E-score. In the case of AGTGAACT it was -0.0967 E-score. In the case of CACCTGCG, the binding signal came to 0.26 E-score. The figure for GGCCTTTA is -0.131 E-score; for ACGCTAAG it is 0.11 E-score; for GCGTGCGA it is 0.000145 E-score. The figure for GCGAGCCC is 0.0446 E-score; for ATACCTGA it is 0.125 E-score.

For the sequence AAACCGAG, the binding signal is -0.122 E-score. The figure for CTAGACTA is -0.15 E-score; for GCGAGTTA it is -0.0168 E-score. In the case of CCAAGAAA it was -0.191 E-score. For the sequence AGGCTGCC, the binding signal was -0.297 E-score. The figure for CCATAAGC is -0.0949 E-score; for AATTCTAC it is -0.0345 E-score; for GCTGTTTA it is -0.213 E-score. The figure for CAGCACCC is 0.188 E-score. The figure for CCCTTCTA is 0.177 E-score. As to TACCGTCA, the binding signal is 0.0795 E-score. In the case of CCGTTCAA it was -0.0309 E-score; in that of GATTGTGC, -0.195 E-score; in that of GACCCTCC, 0.0835 E-score. For the sequence CACGTACC, the binding signal was 0.115 E-score.

Regarding AGAACCGC, the binding signal was -0.0673 E-score. CAACCACG: the binding signal stood at 0.155 E-score. With CCTATGTA, the binding signal was found to be 0.0459 E-score. On to ACCAACGC, for which the binding signal was 0.246 E-score. In the case of AATACCCA it was 0.0414 E-score; in that of ACCCCGGG, 0.302 E-score. As for AACCAAAC, the binding signal is -0.216 E-score. In the case of GTTAGGAA it was 0.0909 E-score; in that of GAAAGGCC, -0.0642 E-score; in that of ATCATATC, 0.0056 E-score. On to TCATTGGA, for which the binding signal was -0.0548 E-score. For AGATATAA, the binding signal is -0.0438 E-score. In the case of CTGGCCGC it was -0.201 E-score; in that of ATTCGCCA, -0.0783 E-score. With CACCATCA, the binding signal came out at 0.231 E-score. Regarding CACACACC, the binding signal is 0.389 E-score.

Regarding GAATGGAA, the binding signal is -0.0114 E-score. The figure for TCGTGCAA is -0.0122 E-score. The figure for GGATTGAC is -0.0983 E-score. Take CTAACCGC: the binding signal was -0.0352 E-score. In the case of CCCTCGAA it was 0.156 E-score; in that of AAATACTC, -0.0157 E-score; in that of AACCCTCG, 0.0629 E-score.

As for CTAAAGTA, the binding signal was -0.0598 E-score. The figure for AAGCGGTA is -0.00553 E-score; for GACGTGAA it is -0.215 E-score.

Turning to GGTCAGTA, the binding signal was 0.0563 E-score. The figure for CACGCTCG is 0.242 E-score; for ACCCGCAA it is 0.0678 E-score. The figure for ACACCCCA is 0.47 E-score; for AATACCAT it is -0.0412 E-score. On to CTTAAAAC, for which the binding signal was -0.198 E-score. The figure for CGCAATAG is 0.00494 E-score; for AATCCGGC it is 0.0215 E-score; for AGGAAGGA it is -0.0285 E-score. The figure for CGCTTATA is -0.0753 E-score. In the case of CAGGCACA it was -0.0072 E-score; in that of ACGGGCAT, -0.0162 E-score; in that of CCAAATAC, -0.0405 E-score. As to AAAACTTG, the binding signal was -0.156 E-score. In the case of GGGACGCA it was -0.186 E-score. Turning to GGGATAAA, the binding signal stood at 0.0743 E-score. In the case of AAAAAATG it was -0.26 E-score. In the case of GCTCTATA it was -0.218 E-score; in that of ACCGTCTA, 0.0486 E-score; in that of ACCAAATA, 0.105 E-score. Take ACGCAAGC: the binding signal is -0.136 E-score. In the case of GGGTGGCA it was 0.138 E-score; in that of CCAAAGCG, 0.0445 E-score. For CGGAAATA, the binding signal was -0.195 E-score. The figure for CATTAGGC is -0.0724 E-score; for ATAGGTGC it is 0.193 E-score; for AGGCGCAT it is 0.136 E-score.

With CACTGCTC, the binding signal stood at 0.104 E-score. The figure for TGGCGCCA is -0.281 E-score; for ATTTACGG it is -0.149 E-score; for CGATCGTC it is -0.0471 E-score. In the case of CTAGATCA it was 9e-05 E-score; in that of AAAGCGCA, 0.0173 E-score. In the case of AAAGCTGA it was -0.0855 E-score. Regarding AGGATAAA, the binding signal was -0.0507 E-score. In the case of AGTTTAAC it was 0.143 E-score.

In the case of GTCAGTCA, the binding signal is -0.105 E-score. The figure for GGGGGTCA is 0.313 E-score. In the case of GCCAGGGC it was -0.0808 E-score; in that of CCAGCGCA, -0.0282 E-score; in that of CGGGGTTC, 0.201 E-score. In the case of GCACCCAC it was 0.194 E-score; in that of CCATCCGC, 0.0369 E-score; in that of CAGTTATG, -0.107 E-score. As to CCGTGTCA, the binding signal came out at 0.465 E-score. The figure for AACAAAAC is 0.0341 E-score; for ATGATTCA it is -0.206 E-score. The figure for GAAAGCGA is -0.103 E-score; for AAAGATAA it is -0.163 E-score; for ACTAAATC it is -0.0692 E-score. AGGTCGAG: the binding signal was -0.0929 E-score. For the sequence CGTCTGTA, the binding signal amounted to 0.0759 E-score.

On to CGTAGCAA, for which the binding signal is -0.18 E-score. In the case of GATTCCAC it was 0.0456 E-score. The figure for CACTGCCC is 0.101 E-score; for TATGCGAA it is -0.0244 E-score; for CCGACTCA it is -0.0958 E-score. Consider AAAATACC, for which the binding signal was -0.0354 E-score. In the case of GACTACTC it was 0.0198 E-score; in that of GCGCTAAC, -0.0761 E-score; in that of ACTCGTAT, 0.0175 E-score.

On to GTATGCTA, for which the binding signal is 0.00895 E-score. The figure for CCGTTGAC is 0.16 E-score. Take TCATACAA: the binding signal is -0.196 E-score.

Regarding ATCTTCCC, the binding signal came to 0.0918 E-score. In the case of CGATGCAA it was -0.131 E-score; in that of CCGAATCA, -0.0877 E-score. In the case of GGGTCTGA it was -0.0896 E-score; in that of CCCCTCGC, 0.169 E-score; in that of CGGGCAAC, 0.135 E-score. The figure for ACTCGTAA is 0.0389 E-score. With ATTTGACG, the binding signal was -0.0556 E-score. For the sequence AGGCTTAC, the binding signal was -0.124 E-score. Turning to GCATATAA, the binding signal was 0.0407 E-score. Consider GAACTGCC, for which the binding signal is -0.325 E-score. Take CAAAGGAA: the binding signal was -0.0811 E-score. In the case of AGATTTTG, the binding signal was -0.163 E-score. In the case of CATATCCA it was -0.0991 E-score; in that of AGGAGCCA, -0.0678 E-score.
